Experimental data from PubChem BioAssay AID624296 (National Center for Advancing Translational Sciences (NCATS), 2012).
About 9,900 (2.8%) of roughly 350,000 compounds were called active. The inconclusive results got no clear call from the source; some entries with a clear call stand among them for comparison. The call rests on the fitted dose curve; in most records, active means well fitted activation curve with a large enough effect; inconclusive means small, poorly fitted or top-dose-only effect; inactive means no such curve, though single readings can be large or run the other way. Potencies of inconclusive entries are left out as doubtful fits.

test: A quantitative high throughput screen for small molecules that induce DNA re-replication in MCF 10a normal breast cells.; further: nearly all actives have a fitted effect of over 50% in size; on activity, positive = re-replication: % of control where 0% means no effect; details: MCF 10A DNA re-replication, Hoechst nuclear intensity, 48 h; activity, positive = re-replication: at 46.1 µM (top of the series)
Potency means the concentration at half of the fitted maximal effect; tags describe the fitted curve by direction and shape.

Row | Structure (SMILES) | Potency | activity, positive = re-replication
1 | Cc1cc(C)c(OCC(=O)Nc2ccccc2N2CCOCC2)c(C)c1 | inconclusive [activator, single point] | –
2 | COc1ccc(C)c2sc(=NC(=O)c3cccc(N4C(=O)CCC4=O)c3)n(C)c12 | inconclusive [activator, partial curve, poor fit] | –
3 | Cc1ccc(C)c(S(=O)(=O)N2CCCC2CNC(=O)C(=O)NCc2ccco2)c1 (stereo not given) | inactive | –
4 | CCOC(=O)c1c(-c2ccc(C)cc2)csc1/N=C/N(C)C | inconclusive [activator, partial curve] | –
5 | COc1ccc(-c2csc3nc(C)nc(N4CCN(C(C)=O)CC4)c23)cc1OC | inconclusive [activator, single point] | –
6 | Cc1cccc(NS(=O)(=O)c2cccc(C(=O)NCC3(N4CCCCC4)CCCCC3)c2)c1 | inactive | –
7 | c1ccc(OCCOCCN2CCN(C(c3ccccc3)c3ccccc3)CC2)cc1 | inconclusive [activator, partial curve] | –
8 | O=C(COC(=O)c1cnc(Cl)c(Cl)c1)NCCC1=CCCCC1 | inconclusive [activator, partial curve, poor fit] | –
9 | c1ccc(C2=NC(c3ccccc3)N=C(c3ccccc3)N2)cc1 | inactive | –
10 | O=C(Nc1cccnc1)c1ccc(COc2ccccc2Br)o1 | active: 20.6 µM | –
11 | CC(=O)N(C1=C(N2CCOCC2)C(=O)c2ccccc2C1=O)c1ccc(C(=O)O)cc1 | inconclusive [activator, single point] | –
12 | O=C(c1cccc(S(=O)(=O)NCc2ccccc2)c1)N1CCN(c2cccc(C(F)(F)F)c2)CC1 | inconclusive [activator, single point] | –
13 | Cc1nc2ccccc2c(=O)n1NC(=O)C1CCC(C(C)(C)C)CC1 (stereo not given) | – | inconclusive: -34.9% [activator]
14 | O=S(=O)(NNc1ccc(Cl)nn1)c1ccc(F)cc1 | inactive | –
15 | CCC(=O)c1ccc(OCC(O)CN2CCN(S(=O)(=O)N3CCCCC3)CC2)cc1 (stereo not given) | inactive | –
16 | O=C(Cc1ccc(Br)cc1)NCCCn1ccnc1 | inconclusive [activator, single point] | –
17 | Cc1ccc(NC(=O)c2ncn(CC(=O)NCc3ccc4c(c3)OCO4)n2)cc1C | inactive | –
18 | Cc1cc(C)c(C#N)c(SCCS(=O)(=O)c2ccc(Cl)cc2)n1 | inactive | –
19 | CCN1C(=O)C(CC(=O)Nc2ccc(OC)cc2)N(CCc2ccc(F)cc2)C1=S (stereo not given) | inconclusive [activator, single point] | –
20 | O=S(=O)(Nc1ccc2c(c1)nc1n2CCN(Cc2ccccc2)C1)c1ccc(F)cc1 | inactive | –
21 | O=C(COC(=O)c1ccccc1Cl)Nc1nccs1 | inconclusive [activator, single point] | –
22 | CCc1nnc(NC(=O)Cc2ccc(OCc3c(C)noc3C)cc2)s1 | inconclusive [activator, full curve, poor fit] | –
23 | CCOC(=O)CSc1nc(C2CC2)cc(-c2ccc(F)cc2)c1C#N | inconclusive [activator, partial curve, poor fit] | –

Row | Structure (SMILES) | Potency | activity, positive = re-replication
24 | COc1ccc(CNC(=O)C(=O)NCC2CCCO2)cc1 (stereo not given) | inconclusive [activator, single point] | –
25 | O=C(CN1CCNCC1)Nc1ccc(Oc2ccccc2)cc1 | inconclusive [activator, partial curve, poor fit] | –
26 | COCCN(C(=O)c1snc(C(N)=O)c1N)C(C(=O)NC1CCCCC1)c1ccc(F)cc1 (stereo not given) | active: 16.4 µM | –
27 | O=C(O)c1ccccc1-c1ccccc1C(=O)Nc1cccc(O)c1 | inconclusive [activator, single point] | –
28 | CN(CC(=O)Nc1ccc(F)cc1)c1ccc(S(=O)(=O)N2CCCCC2)cc1[N+](=O)[O-] | inactive | –
29 | O=[N+]([O-])c1ccc(CSc2nnc(Cc3ccccc3)n2-c2ccc(F)cc2)cc1 | inactive | –
30 | N#C/C(=C\c1ccc(N2CCOCC2)cc1)c1ccccc1 | inconclusive [activator, single point] | –
31 | N#CC[C@H](c1ccccc1)N1CCN(Cc2ccccc2)CCC1=O | inconclusive [activator, partial curve, poor fit] | –
32 | CCN1CCCC(OC(=O)c2cc(-c3ccc(C)cc3)nc3ccccc23)C1 (stereo not given) | inactive | –
33 | O=C(c1ccccc1F)N1CCN(C2CCC(c3ccccc3)CC2)CC1 (stereo not given) | inconclusive [activator, single point] | –
34 | CN(CC(=O)Nc1ccc(Cl)c(C(F)(F)F)c1)C(=O)C1CC(=O)N(CCc2ccccc2)C1 (stereo not given) | inconclusive [activator, single point] | –
35 | CCOc1ccccc1NC(=O)CSc1nncc2ccccc12 | inconclusive [activator, single point] | –
36 | COc1ccccc1/C=C/C(=O)Oc1cccc2cccnc12 | inconclusive [activator, partial curve, poor fit] | –
37 | CN(CC(=O)Nc1ccccc1Cl)C(=O)C1CCN(C(=O)c2ccc(F)cc2)CC1 | inactive | –
38 | O=c1oc2ccccc2cc1N1CCOCC1 | inconclusive [activator, single point] | –
39 | O=C(CSC(=S)N1CCCCC1)Nc1nc(-c2ccccc2)c(-c2ccccc2)o1 | inactive | –
40 | Cc1cc(C)cc(NC(=O)C2(c3ccccc3)CC2(Cl)Cl)c1 (stereo not given) | inconclusive [activator, single point] | –
41 | COc1ccc(/C(O)=C2/C(=O)C(=O)N(c3ccccn3)C2c2cccc(Cl)c2)cc1 (stereo not given) | inactive | –
42 | O=C(N/N=C/c1cc([N+](=O)[O-])ccc1O)NC12CC3CC(CC(C3)C1)C2 | inconclusive [activator, partial curve, poor fit] | –
43 | CC(=O)c1ccc(N2CCN(S(=O)(=O)c3ccc4ccccc4c3)CC2)cc1 | inconclusive [activator, single point] | –
44 | CCCCNC1C(CC)C(CCC)C(C#N)(C#N)C1(C#N)C#N (stereo not given) | active: 20.6 µM | –
45 | Cc1cccc(OC(C)C(=O)Nc2cc(S(=O)(=O)N3CCCCC3)ccc2C)c1 (stereo not given) | inconclusive [activator, partial curve] | –
